SMILES strings stand for the structures. The list shows a part of the results. Shown are side measurements of this screen, not its main read-out; they come without a call. Compounds called inactive in the main read-out are mostly missing here. The note in brackets gives the kind of curve behind each potency; many fits are weak.
Tags tell the direction and shape of the fitted curve.

The nature of the assay: Cell-based coincidence reporter assay to measure PMP22 gene transcription in S16 Pmp22-F2sN cells - Confirmatory screen (AID 1508646). The settings on record: S16 Schwann cells Pmp22-F2sN, dual luciferase, 24 h; measured here: FLuc reporter channel. The method in brief:
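Coincidence reporter read as sequential FLuc then NLuc luminescence (Nano-Glo Dual-Luciferase, 10 min each). Engineered S16 Pmp22-F2sN Schwann cells, 500-1,000 per well in DMEM/10% FBS, were exposed to compounds for 24 h, 37C.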
On the technique in general: In a reporter assay the amount or activity of a reporter protein is the signal.
The term AC50 denotes the concentration at which the activity in the assay is half-maximal. `Cc1cccc(CCNc2ncnc3onc(-c4ccc(Cl)cc4)c23)c1`: the AC50 was 27.3 µM [falling, single point].

Turning to `Cc1cc(Nc2sc(C(=O)c3ccc(F)cc3)c(N)c2C(=O)Nc2ccc(F)cc2)ccc1Cl`, the AC50 is 6.11 µM [falling, full curve].

As for `Cc1ccc(NC(=O)CSc2nc3ccccc3nc2Cc2ccccc2)c(C)c1`, the AC50 was 24.3 µM [falling, single point].

Regarding `COc1cccc(-c2cc(C(=O)Nc3cc(OC)c(OC)c(OC)c3)on2)c1`, the AC50 is 19.3 µM [falling, partial curve].

For the compound `O=C(CSc1c2c(nc3ccc(Cl)cc13)CCCC2)NCc1ccccc1Cl`, the AC50 was 21.7 µM [falling, partial curve].

Consider `COc1ccccc1Nc1c2c(nc3ccc(NC(=O)c4cccc(F)c4)cc13)CCCC2`, for which the AC50 is 10.9 µM [falling, full curve].

Regarding `CCc1ccc(NC(=O)c2ccc3c(c2)c(C)c(C)n3Cc2ccccc2)cc1`, the AC50 was 7.69 µM [falling, partial curve, poor fit].

With `O=S(=O)(c1ccc(-c2csc(=Nc3ccc(OC(F)(F)Cl)cc3)n2CCCO)cc1)N1CCCC1`, the AC50 was 19.3 µM [falling, partial curve].

With `CCCOC(=O)c1c(C)oc2c1cc(NS(=O)(=O)c1ccc(OCC)cc1)c1ccccc12`, the AC50 is 10.9 µM [falling, partial curve, poor fit].

In the case of `CCS(=O)(=O)c1ncc(Cl)c(C(=O)NCc2ccccc2)n1`, the AC50 was 6.11 µM [falling, full curve].

For `CCc1ccccc1NC(=O)Cn1nnc(C(=O)NCc2cccs2)c1N`, the AC50 is 5.44 µM [falling, full curve, poor fit].

For the compound `COc1ccc(Nc2ncc(C(=O)N3CCN(c4cccc(Cl)c4)CC3)c3ccccc23)cc1`, the AC50 is 12.2 µM [falling, full curve, poor fit].

Turning to `CCOc1ccc(C(=O)Nc2ccc3nc(SCc4ccccc4)sc3c2)cc1`, the AC50 is 19.3 µM [falling, partial curve].

`COc1cccc(CNC(=O)c2cc3c(=O)n(C)c4ccccc4c3n2C)c1`: the AC50 was 24.3 µM [falling, single point].

As to `CCCC1=Nc2cc(C(=O)NC3CCCC3)ccc2Sc2ccc(C)cc21`, the AC50 was 5.44 µM [falling, full curve].

As to `Cc1ccc(C)c(Nc2nn3c(=O)c4ccc(C(=O)NCc5cccs5)cc4nc3s2)c1`, the AC50 is 19.3 µM [falling, partial curve].

`COc1ccccc1Nc1nn2c(=O)c3ccc(C(=O)NCCC4=CCCCC4)cc3nc2s1`: the AC50 is 6.11 µM [falling, full curve].

In the case of `COc1ccc(C)cc1NS(=O)(=O)c1ccc(-c2cnc(C3CC3)o2)cc1`, the AC50 is 1.22 µM [falling, full curve, poor fit].

As for `COc1ccc(OCC(=O)NCc2ccc3c(c2)CCN3C(=O)c2cccc(C)c2)cc1`, the AC50 is 10.9 µM [falling, full curve].

`CCCCS(=O)(=O)c1nc(-c2ccc(Br)cc2)cc(-c2ccccc2)c1C#N`: the AC50 was 7.69 µM [falling, full curve].

In the case of `CCOc1ccc(Nc2nc3c(S(=O)(=O)c4ccc(CC)cc4)nnn3c3ccc(Cl)cc23)cc1`, the AC50 was 13.7 µM [falling, partial curve, poor fit].

For the compound `Cc1ccc(Cl)cc1N1CCN(C(=O)c2ccc(C)c(-n3c(C)nc4cccnc43)c2)CC1`, the AC50 is 27.3 µM [falling, partial curve].

As to `Cc1ccc(NS(=O)(=O)c2cc(Br)cc3c2N(C(=O)C2CC2)CC3)cc1C`, the AC50 is 21.7 µM [falling, partial curve].

Turning to `Cc1ccc(CS(=O)(=O)c2ncc(Cl)c(C(=O)Nc3nc4ccc(F)cc4s3)n2)cc1`, the AC50 is 19.3 µM [falling, partial curve].

On to `CCOC(=O)c1ccc(N2C(=O)c3n[nH]c(C)c3C2c2ccc(O)c(OC)c2)cc1` (stereo not given), for which the AC50 is 17.2 µM [falling, partial curve].

Consider `COc1cc(C(=O)CC2(O)C(=O)N(Cc3ccccc3Cl)c3ccccc32)cc(OC)c1OC` (stereo not given), for which the concentration at half-maximal activity (AC50) was 30.6 µM [falling, single point].

Take `Cc1ccc(C)n1-c1nnc(N2CCCC(C(=O)NCc3cccc(F)c3)C2)s1` (stereo not given): the AC50 is 27.3 µM [falling, single point].

In the case of `CCC1CCCCN1CCCNC(=O)c1cc2c(Cl)nc3ccccc3c2s1` (stereo not given), the AC50 was 21.7 µM [falling, partial curve].

On to `COc1ccc(N(CC(=O)Nc2cc(Cl)ccc2C)S(=O)(=O)c2c(C)noc2C)cc1`, for which the AC50 is 3.85 µM [falling, full curve, poor fit].

As to `O=S(=O)(c1ccc(Cl)cc1)c1nnn2c1nc(NC1CCCC1)c1sccc12`, the AC50 was 12.2 µM [falling, partial curve].

Values taken from PubChem BioAssay (NCATS).
